Reference: PubChem BioAssay AID686979 (National Center for Advancing Translational Sciences (NCATS), 2013)
Where “and” joins values, the source holds several entries; their conditions need not be identical. Identical values can stand only once. About 50,000 (12%) of roughly 420,000 compounds were called active. Inconclusive means that the source gave no clear call. Such entries were picked first, then a sample of the others. The call rests on the fitted dose curve; in most records, active means well fitted inhibition curve with a large enough effect; inconclusive means small, poorly fitted or top-dose-only effect; inactive means flat fitted curve, though single readings scatter. Potencies of inconclusive entries are doubtful fits and often do not repeat.

Assay: qHTS for Inhibitors of human tyrosyl-DNA phosphodiesterase 1 (TDP1): qHTS in cells in presence of CPT; further: nearly all actives have a fitted effect of over 55% in size
Conditions: chicken DT40 Tdp1-/-;hTDP1 cells + 20 nM CPT, ATP luminescence, 48 h; activity change, negative = growth inhibition: at 46.2 µM (top of the series) unless noted
Outline: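 Chicken DT40 Tdp1-/- cells stably complemented with human TDP1 were seeded at 400 cells/well in medium containing 20 nM camptothecin, exposed to pin-transferred compounds, and grown at 37 °C for at least 48 hr. Viability was read as ATP luminescence.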
On the % scale 0 is the no-effect control and ±100 the full control effect; potency means the concentration at half of the fitted maximal effect; tags describe the fitted curve by direction and shape.

Structure (SMILES) | Potency | activity change, negative = growth inhibition
Cc1nc(N2CCN(C(=O)COc3ccccc3)CC2)c2c(C)c(C)sc2n1 | inconclusive: 18.4 µM [inhibitor, single point] | –
C=CCn1c(=O)c(C(=O)NCc2ccccc2Cl)c(O)c2ccccc21 | inconclusive: 25.9 µM [inhibitor, single point] | –
CCCCCCn1c(=O)n2n(c1=O)[C@@H]1CN(S(=O)(=O)c3ccc(C)cc3)C[C@]1(O)[C@@H](OC(=O)NC1CC1)C2 | inconclusive: 29.1 µM [inhibitor, single point] | –
COc1ccc2c(c1)CCc1cnc(-n3ncc(C(=O)NCc4cccnc4)c3C3CC3)nc1-2 | – | inactive: -5.66% [at 9.04 µM]
COc1cccc(CNC(=O)Cn2c(SCC(=O)Nc3ccc(C)c(C)c3)nc3ccccc32)c1 | inconclusive: 25.9 µM [inhibitor, single point] | –
CC(Oc1ccccc1)C(=O)N1CCC2(CC1)Oc1ccc(F)cc1C(=O)C21CC(c2ccccc2)=NO1 (centres undefined) | inconclusive: 29.1 µM [inhibitor, single point] | –
OC(c1ccc2c(c1)CN(Cc1ccc3nsnc3c1)CCO2)C1CCCCC1 (centres undefined) | inactive | –
CCOc1ccc(CCNC(=O)COC(=O)c2cccc(N(C)C)c2)cc1OCC | inactive | –
CCCCCOc1ccc(NC(=O)Cn2c(-c3cncs3)nc3ccccc32)cc1 | inconclusive: 23.1 µM [inhibitor, single point] | –
O=S1(=O)c2ccc(Br)cc2OC(COCc2ccccc2)CN1Cc1ccccc1 (centres undefined) | inconclusive: 29.1 µM [inhibitor, single point] | –
O=C(O)c1c2c(nc3ccc(S(=O)(=O)N4CCC(C(=O)NCc5ccc(Cl)cc5)CC4)cc13)CCCC2 | inactive | –
C=CCNC(=O)C1CCN(S(=O)(=O)c2cccs2)CC1 | inactive | –
O=C(NCC1CCCO1)c1sc2ccccc2c1Cl (centres undefined) | inactive | –
CCC(/C=C1\Oc2ccc(OC)cc2N1C)=C\c1sc2ccccc2[n+]1CCCS(=O)(=O)[O-] | inactive | –
Cc1csc(NC(=O)c2ccc(S(=O)(=O)N(C)c3ccccc3)cc2)n1 | active: 11.6 µM | –
COC(=O)[C@H](Cc1ccccc1)NC(=O)Nc1ccc(OC)cc1 | inactive | –
O=C(CCCC1=NS(=O)(=O)c2ccccc2N1)N1CCN(c2ccc(Cl)cc2)CC1 | active: 16.4 µM | –
O=C(COc1cccc(NC(=O)c2cccc([N+](=O)[O-])c2)c1)c1ccc(Br)cc1 | inconclusive: 29.1 µM [inhibitor, single point] | –
COc1cc(/C=C/c2nc3cc(Cl)ccc3c(=O)n2-c2ccc(C)cc2C)cc(OC)c1OC | active: 16.4 µM | –
COc1ccc(S(=O)(=O)NCC(c2ccco2)N2CCN(c3ccccc3F)CC2)cc1C (centres undefined) | active: 20.6 µM | –
O=C(Nc1nc2ccccc2[nH]1)c1ccccc1F | inconclusive: 10.3 µM [inhibitor, partial curve, poor fit] | –
CS(=O)(=O)c1nc(S(=O)(=O)c2ccc(Cl)cc2)c(N2CCC(C(N)=O)CC2)s1 | inconclusive: 29.1 µM [inhibitor, single point] | –

Structure (SMILES) | Potency | activity change, negative = growth inhibition
Cc1cc(Br)ccc1OCCCCN1CCCCC1 | inconclusive: 29.1 µM [inhibitor, single point] | –
O=C(Nc1ccc(-n2cccc2)cc1)C1CC1 | active: 9.2 µM | –
Cc1ccc(-c2cnc(N)n2C)cc1C | inconclusive: 18.4 µM [inhibitor, partial curve] | –
COc1ccc(CNC(=O)CN2C(=O)NC(C)(c3ccc(C(C)(C)C)cc3)C2=O)cc1 (centres undefined) | inconclusive: 16.4 µM [inhibitor, partial curve, poor fit] | –
Cc1ccccc1CSc1nc2ccccc2c(=O)n1C | inconclusive: 18.4 µM [inhibitor, partial curve] | –
CC(C)(C)c1cc(/C=N/NC(=O)C[n+]2ccccc2)cc(C(C)(C)C)c1O | inconclusive: 18.4 µM [inhibitor, single point] | –
COCCOc1ccc(C(F)(F)F)cc1NC(=O)CN1C(=O)NC2(CCc3ccccc32)C1=O (centres undefined) | inactive | –
O=C(CCCOc1ccc(Cl)cc1Cl)N/N=C/c1cccc([N+](=O)[O-])c1 | inconclusive: 20.6 µM [inhibitor, single point] | –
Cc1cc(Nc2cccc(C(F)(F)F)c2)nc2ccc(NC(=O)c3cccnc3)cc12 | active: 4.11 µM | –
COC(=O)CNC(=O)C1CCN(c2nc(C)cc(C)n2)CC1 | inconclusive: 18.4 µM [inhibitor, partial curve, poor fit] | –
COc1ccc(C(CNC(=O)c2oc3ccc(OC)cc3c2C)N2CCCC2)cc1 (centres undefined) | active: 23.1 µM | –
COc1ccc(Cl)cc1NC(=O)c1nnn(CC(=O)Nc2ccc(OC)c(OC)c2)c1N | inactive | –
CCCCNC(=O)C1(C)CCN1Cc1cccc2c(OC)cc(C(=O)OCC)cc12 (centres undefined) | inconclusive: 23.1 µM [inhibitor, single point] | –
O=S(=O)(NCc1ccccn1)c1cc(C(F)(F)F)ccc1Cl | – | inconclusive: -32.5% [inhibitor]
O=C(NCC(c1cccnc1)N1CCc2ccccc21)C(=O)Nc1ccccc1F (centres undefined) | active: 7.31 µM | –
Cc1ccc(NC(=O)C2(C)CCN2Cc2ccccc2OC(F)F)cc1 (centres undefined) | inconclusive: 29.1 µM [inhibitor, single point] | –
COc1ccc(Nc2ncnc3c2nc2n3CCCC2)cc1Cl | inconclusive: 29.1 µM [inhibitor, single point] | –
Cc1ccc(-c2nc(C(=O)NC3CCCCCC3)no2)cc1 | inconclusive: 20.6 µM [inhibitor, single point] | –
O=C(O)C1C2C=CC(C2)C1C(=O)NCc1ccccc1 (centres undefined) | inconclusive: 23.1 µM [inhibitor, single point] | –
CCc1cccc(NC(=O)c2cccc3c2C(=O)N(C2CCCCC2)C3)c1 | inconclusive: 29.1 µM [inhibitor, single point] and inconclusive: 23.1 µM [inhibitor, single point] | –
Cc1ccc(N=c2sc(C)c(C)n2C)cc1 | inactive | –
Cc1ccc(C(=O)N/C(=C\c2ccco2)C(=O)N2CCOCC2)cc1C | inactive | –
